The whole screen tested about 16,000 compounds, of which about 120 (0.75%) were called active. About 4% were inconclusive and are not listed. Calls come from the whole dose curve; as a rule, active = well fitted inhibition curve with a large enough effect; inconclusive = small, poorly fitted or top-dose-only effect; inactive = no such curve, though single readings can be large or run the other way. The list shows a part of the results.
What follows are compounds tested against Rap guanine nucleotide exchange factor 3 (Homo sapiens) (UniProt O95398) (assay: Validation qHTS for antagonist of cAMP-regulated guanine nucleotide exchange factor 3 (EPAC1)). Settings: EPAC1 Rap1B-BODIPY-GDP exchange, fluorescence; series mostly up to 150 µM; activity change, negative = inhibition: at the top concentration.
Procedure, shortened: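 EPAC1 (100 nM) mixed with 250 nM RAP1B-BODIPY-GDP and 50 uM GDP; compounds in concentration series, 5 min at room temperature. Fluorescence (ex 480/em 540 nm) read every 5 min for 30 min; normalized to ATA control and DMSO.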
Note: nearly all actives have a fitted effect of over 75% in size.
Potency is the fitted concentration of half-maximal effect.
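Throughout, for activity change, negative = inhibition: plate controls were DMSO for no effect and ATA control for full effect.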

Chain of UniProt O95398 (O95398 whole entry, looked up): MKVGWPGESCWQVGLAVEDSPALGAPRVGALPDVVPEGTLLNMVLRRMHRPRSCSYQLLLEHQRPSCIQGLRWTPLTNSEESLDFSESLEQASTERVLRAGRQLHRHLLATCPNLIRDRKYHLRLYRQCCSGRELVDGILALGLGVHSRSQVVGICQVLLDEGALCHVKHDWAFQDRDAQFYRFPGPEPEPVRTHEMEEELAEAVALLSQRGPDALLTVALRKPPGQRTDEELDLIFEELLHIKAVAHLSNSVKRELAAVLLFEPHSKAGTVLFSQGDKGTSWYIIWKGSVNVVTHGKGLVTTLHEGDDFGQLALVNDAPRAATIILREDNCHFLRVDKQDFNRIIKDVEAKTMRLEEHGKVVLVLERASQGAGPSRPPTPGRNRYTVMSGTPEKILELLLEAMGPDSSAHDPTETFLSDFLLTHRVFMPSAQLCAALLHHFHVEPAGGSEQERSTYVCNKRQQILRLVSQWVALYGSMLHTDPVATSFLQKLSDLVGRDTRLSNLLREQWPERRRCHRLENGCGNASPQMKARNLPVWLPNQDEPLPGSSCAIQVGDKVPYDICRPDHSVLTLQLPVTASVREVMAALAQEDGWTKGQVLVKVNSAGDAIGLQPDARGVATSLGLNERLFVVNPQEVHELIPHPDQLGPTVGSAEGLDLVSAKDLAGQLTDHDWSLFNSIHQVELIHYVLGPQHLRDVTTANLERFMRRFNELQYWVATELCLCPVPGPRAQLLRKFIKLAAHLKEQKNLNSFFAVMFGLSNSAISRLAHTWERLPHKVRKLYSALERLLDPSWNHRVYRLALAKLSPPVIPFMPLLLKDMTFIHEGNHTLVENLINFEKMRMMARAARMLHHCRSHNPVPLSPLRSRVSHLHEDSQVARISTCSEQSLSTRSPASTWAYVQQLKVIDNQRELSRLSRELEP

Structure (SMILES)	activity change, negative = inhibition	Potency
O=C(c1cnsn1)N1CCOc2ccc(C(O)C(c3ccccc3)c3ccccc3)cc2C1 (stereo unspecified)	inactive: 0.764%	–
O=C(N[C@@H]1c2ccccc2C2(CCN(C(=O)c3cc4ccccc4oc3=O)CC2)[C@H]1O)c1cccnc1	inactive: 11.4%	–
O=C(C[n+]1ccncc1Cl)c1ccc(F)cc1	inactive: 10.8%	–
COc1ccc(C2Oc3cc(OC)cc(OC)c3CC2O)cc1 (stereo unspecified)	inactive: 7.42%	–
COc1ccccc1CN1CCOc2ccc(C(C)(O)COc3ccccc3)cc2C1 (stereo unspecified)	inactive: -3.89%	–
Cc1noc(C)c1C(=O)N1CCC2(CCN(C(=O)Nc3ccccc3)CC2)CC1	inactive: 3.07%	–
O=C(O)c1ccc(-n2nc(-c3ccccc3O)nc2-c2ccccc2O)cc1	inactive: 29.7%	–
N#Cc1cccc(-c2nc(Nc3ccncc3)c3ccccc3n2)c1	inactive: 6.07%	–
COc1ccccc1-c1ccc(C(=O)NCCN2CCOCC2)c(N2CCN(c3ccccc3F)CC2)n1	inactive: 17.3%	–
CCCCCC(=O)Cc1cc(O)cc(O)c1C(=O)Oc1cc(CC(=O)CCCCC)c(C(=O)O)c(OC)c1	inactive: -3.31%	–
NC(=O)OCC(O)COc1ccc(Cl)cc1 (stereo unspecified)	inactive: 19.5% [at 75.8 µM]	–
Cn1c(=O)c(-c2cccs2)nc2cncnc21	inactive: 15.4%	–
CN(C)CCC=C1c2ccccc2C(C)(C)c2ccccc21	inactive: 1.37%	–
N=C(N)SCCc1ccc(CCSC(=N)N)cc1	inactive: 17% [at 75.8 µM]	–
COc1ccc(CN(CCN(C)C)c2ncccn2)cc1	inactive: 14.6%	–
O=C(/C=C/c1cccc(F)c1)NC1CC1	inactive: 5.73%	–
O=C(O)C[C@H]1c2cc(C(F)(F)F)ccc2S(=O)(=O)N1Cc1ccccc1	inactive: 17.8%	–
CN1CCN(C(=O)C2CCCCC2)CC1	inactive: 7.91%	–
Oc1ccc(C2CNCc3sccc32)cc1O (stereo unspecified)	inactive: 1.51% [at 75.8 µM]	–
C[C@@H]1NS(=O)(=O)[C@H]2C[C@@H]3C=C[C@]2(O3)[C@H]1OC(=O)c1ccccc1Br	inactive: 1.08%	–
Cc1cc2c(OCC(CNC(C)(C)C)OC(=O)c3ccccc3)cccc2[nH]1 (stereo unspecified)	inactive: 12.1%	–
COc1c2ccoc2cc2oc(C)cc(=O)c12	inactive: -6.68%	–

Structure (SMILES)	activity change, negative = inhibition	Potency
CCNc1ncc2nc(-c3cc(F)cc(F)c3)c(=O)n(CCC#N)c2n1	inactive: 9.19%	–
COc1ccc2[nH]cc(CCNc3nc(-c4ccccc4OC)nc4ccccc34)c2c1	inactive: -4.34%	–
CCc1ccc(C=O)cc1	inactive: 14.8%	–
O=C(c1cnccn1)N1CCC2(CC1)CN(c1ccccc1)C2	inactive: 1.38%	–
CC(C)c1c(C(=O)NCc2cccnc2)cnn1-c1nccc(-c2cccs2)n1	inactive: 0.817%	–
O=C(NCC1Cc2cc(F)cc(-c3cnccn3)c2O1)C1COc2ccccc2O1 (stereo unspecified)	inactive: 14.7%	–
NC(=O)c1ccc[n+]([C@@H]2O[C@H](COP(=O)([O-])OP(=O)(O)OC[C@H]3O[C@@H](n4cnc5c(N)ncnc54)[C@H](O)[C@@H]3O)[C@@H](O)[C@H]2O)c1	inactive	–
CN1CCN(c2ncc3nc(-c4cccc(C#N)c4)c(=O)n(C)c3n2)CC1	inactive: 6.61%	–
COCC(=O)N1CCC2(CC1)CN(C(=O)Nc1ccccc1)C2	inactive: 10.4%	–
CC(=O)O[C@H]1C[C@@H]2CC[C@@H]3[C@H](CC[C@@]4(C)[C@H]3C[C@H](N3CC[N+](C)(C)CC3)[C@@H]4OC(C)=O)[C@@]2(C)C[C@@H]1N1CC[N+](C)(C)CC1	inactive: 31.4%	–
CSc1nc(N)c2ncn([C@H]3O[C@H](COP(=O)(O)OP(=O)(O)OP(=O)(O)O)[C@@H](O)[C@@H]3O)c2n1	inactive: 5.39%	–
NCC(=O)CCC(=O)O	inactive: 15.1%	–
COc1cc2c(cc1OC)C1C(=O)c3c(cc4c(c3O)C=CC(C)(C)O4)OC1CO2 (stereo unspecified)	inactive: -1.99%	–
COCCn1c(=O)c(-c2ccc(OC)cc2)nc2cnc(N3CCOCC3)nc21	inactive: 41.6%	–
Cn1cccc1C(=O)N1CCC2(CC1)CN(C(=O)Nc1ccccc1)C2	inactive: 20.8%	–
Cc1cnc(CNc2nc(-c3ccc4c(c3)OCO4)nc3ccccc23)cn1	inactive: -32.1%	–
CCOC(=O)C1=C[C@@]2(CC)CCCN3CCc4c(n1c1ccccc41)[C@H]32	inactive: -19.3%	–
NCCC(=O)c1ccccc1N	inactive: 16.6%	–
CC(C)(C)NCC(O)c1ccc(O)c(CO)n1 (stereo unspecified)	inactive: 21.4%	–
CN(C)Cc1ccccc1	inactive: 30.2%	–
O=C(CCCN1CCC(O)(c2ccc(Cl)cc2)CC1)c1ccc(F)cc1	inactive	–
O=C(O)c1cc(O)c2c(c1)C(=O)c1cc(O)cc(O)c1C2=O	inactive: -11.7%	–

Structure (SMILES)	activity change, negative = inhibition	Potency
CCCCCCCCCCCCCCCC[n+]1ccc(C)c2ccccc21	–	active: 63.1 µM
CC(=O)OCC(=O)[C@@]1(O)CCC2C3CC[C@H]4CC(O)CC[C@@]4(C)C3C(=O)C[C@]21C (stereo partly specified)	inactive: 17.1%	–
CC(C)NC(=O)N1CCCC2(CCN(C(=O)c3cc(C(F)(F)F)cc(C(F)(F)F)c3)CC2)C1	inactive: 4.35%	–
O=C1CCC[C@@H]2C[C@@]3(C[C@@H]4CCN1[C@H]24)Nc1cc(Cl)ccc1NC3=NCc1ccccc1	inactive: -12.9%	–
C[C@@H]1CCC2[C@](C)(CO)C(O)CC[C@@]2(C)[C@@]12CC[C@](CO)(CCO)O2 (stereo partly specified)	inactive: 17.2%	–
O=C(O)C[C@H](O)C[C@H](O)/C=C/c1c(C2CC2)nc2ccccc2c1-c1ccc(F)cc1	inactive: 13.5%	–
CCNc1ncc2nc(C)c(=O)n(C3CC3)c2n1	inactive: 8.44%	–
CC1=C(C(=O)O)N2C(=O)[C@@H](NC(=O)C(N)C3=CCC=CC3)[C@H]2SC1 (stereo partly specified)	inactive: 3.21% [at 75.8 µM]	–
O=c1[nH]c2cc(Cl)ccc2c(O)c1-c1cccc(Oc2ccccc2)c1	inactive: 0.192%	–
Cc1ccc(C)c(OCCCC(C)(C)C(=O)O)c1	inactive	–
Cc1cc(/C=C/c2ccccc2)nc2ccccc12	inactive: -6.16%	–
C[C@@H]1CCC2[C@@H](C)[C@@H](O)O[C@@H]3O[C@@]4(C)CC[C@@H]1[C@@]23OO4 (stereo partly specified)	inactive: 18.5%	–
O=C1CCN(Cc2ccccc2)S(=O)(=O)c2c(F)cc(F)cc21	inactive: -2.45%	–
C=CCN1CCc2c(cc(O)c(O)c2Cl)C(c2ccccc2)C1 (stereo unspecified)	inactive	–
COc1ccccc1-c1ccc2ncnc(N3CCN(C)CC3)c2c1	inactive: 8.73%	–
COC(=O)c1c(C)c2c(c(C)c1O)OC(=O)c1c(C)c(Cl)c(O)c(Cl)c1O2	inactive	–
COc1cc(C(=O)N2CCCCCCC2)cc(OC)c1OC	inactive: 5.42%	–
COc1ccccc1CNc1ncnc2ccc(-c3ccccc3C#N)cc12	inactive: -15.3%	–
Cc1cnc(-n2ncc(C(=O)NCc3ccncc3)c2C(C)C)nc1-c1ccc(F)cc1	inactive: -8.92%	–
O=C(c1csnn1)N1CCC[C@@]2(CCN(Cc3nccs3)C2)C1	inactive: 15.4%	–
Cc1ccccc1-c1ccc2ncnc(NCc3cccnc3)c2c1	inactive: -13.9%	–
Cc1nc(NCc2ccc3nsnc3c2)sc1-c1ccn(C)n1	inactive: -4.96%	–
